Test results as given in PubChem BioAssay AID588382 (National Center for Advancing Translational Sciences (NCATS), 2011).
The campaign covered roughly 1,300 compounds. About 150 (12%) were called active. The shares of active, inactive and inconclusive entries below differ from those in the screen. Calls come from the whole dose curve; as a rule, active = well fitted cell-killing curve with a large enough effect; inconclusive = small, poorly fitted or top-dose-only effect, or effect the other way; inactive = flat fitted curve, though single readings scatter. Potencies beside an inconclusive call are fits to weak or partial responses and may not hold up.
Potency is the fitted concentration of half-maximal effect; tags give direction and shape of the fitted curve.

Assay: qHTS of small molecules that selectively kill Giardia lamblia: Hit Validation in HepG2 cytotox;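 note: compound exposure lasted overnight at 37 deg C; nearly all actives have a fitted effect of over 55% in size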
Details: cell viability; Potency: HepG2 cytotoxicity; series mostly up to 38.3 µM
Method in brief: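 Counterscreen cytotoxicity: ATPLite luminescence (15 min, room temperature) measured in HepG2 cells exposed overnight at 37 deg C to pin-transferred compound (23 nL) after overnight pre-incubation.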
For `CCCCNC(=O)/C(=C\c1ccc([N+](=O)[O-])o1)NC(=O)c1ccccc1`, the Potency was “inactive”.
In the case of `CC1CCN(c2ccc(NC(=O)c3ccc([N+](=O)[O-])o3)cc2)CC1`, the Potency was inconclusive: 2.33 µM [cytotoxic, full curve].
In the case of `O=C(NCc1nnnn1-c1ccc(F)cc1)c1ccc([N+](=O)[O-])o1`, the Potency was inconclusive: 10.4 µM [cytotoxic, partial curve, poor fit].
For `COc1cc2nc(N3CCCCC3)nc(NC3CCN(Cc4ccccc4)CC3)c2cc1OC`, the Potency was active: 2.93 µM.
In the case of `Cc1ccccc1NCC(=O)N/N=C\c1ccc([N+](=O)[O-])s1`, the Potency was inconclusive: 14.7 µM [cytotoxic, single point].
With `COc1cc2nc(N3CCCN(C)CC3)nc(NC3CCCCC3)c2cc1OC` the Potency was inconclusive: 1.85 µM [cytotoxic, full curve].
In the case of `O=C1/C(=C/c2ccc(O)c([N+](=O)[O-])c2)SC(=S)N1Cc1ccccc1`, the Potency was inconclusive: 7.36 µM [cytotoxic, partial curve, poor fit].
In the case of `Cc1nc2ccccn2c1C(=O)N/N=C/c1ccc([N+](=O)[O-])o1`, the Potency was active: 14.7 µM.
With `COc1ccc(C2CC(c3ccccc3)Nc3ncnn32)cc1` (centres undefined) the Potency was inconclusive: 9.27 µM [rising, partial curve, poor fit].
With `Cc1cc(C(=O)N/N=C/c2ccc([N+](=O)[O-])s2)c2ccccc2n1` the Potency was inconclusive: 26.1 µM [cytotoxic, single point].
With `Nc1ccc[n+](CC(=O)c2ccc(F)cc2)c1` the Potency was active: 1.65 µM.
For `N#C/C(=C(/O)c1ccc([N+](=O)[O-])s1)c1nc2ccccc2[nH]1`, the Potency was inconclusive: 4.14 µM [cytotoxic, full curve].
In the case of `O=S1(=O)[C@H]2C[C@@H]3C=C[C@@]2(CN1Cc1cccc(F)c1)O3`, the Potency was inconclusive: 13.1 µM [rising, partial curve, poor fit].
For `O=C(Nc1ccc(N2CCOCC2)c(Cl)c1)c1ccc([N+](=O)[O-])o1`, the Potency was inconclusive: 6.56 µM [cytotoxic, partial curve].
In the case of `CC(=O)N1CCc2c(sc(NC(=O)c3ccc([N+](=O)[O-])o3)c2C#N)C1`, the Potency was active: 3.29 µM.
With `Clc1ccc(CSc2nc3ccncc3[nH]2)cc1` the Potency was active: 1.17 µM.
In the case of `NC(=O)c1ccc(NC(=O)COc2ccc([N+](=O)[O-])cc2Cl)cc1`, the Potency was “inactive”.
In the case of `Cc1csc(NC(=O)CSc2nc3[nH]c(=O)cc(O)c3s2)n1`, the Potency was inconclusive: 26.1 µM [cytotoxic, single point].
In the case of `O=C(Nc1ccc(Br)cn1)c1ccc([N+](=O)[O-])o1`, the Potency was inconclusive: 26.1 µM [cytotoxic, single point].
In the case of `CCCC[n+]1c(/C=C/c2c(OC)cc(OC)cc2OC)ccc2ccccc21`, the Potency was inconclusive: 26.1 µM [cytotoxic, single point].
In the case of `Cc1ccc(OCC(=O)N/N=C/c2ccc([N+](=O)[O-])o2)cc1`, the Potency was inconclusive: 23.3 µM [cytotoxic, single point].
In the case of `Cc1noc(/C=C/c2cccnc2)c1[N+](=O)[O-]`, the Potency was inconclusive: 5.21 µM [cytotoxic, partial curve, poor fit].
In the case of `Cc1ccccc1C(=O)N/N=C/c1ccc([N+](=O)[O-])s1`, the Potency was active: 18.5 µM.
With `O=[N+]([O-])c1ccc2nc(CO)[nH]c2c1` the Potency was inconclusive: 9.27 µM [rising, partial curve, poor fit].
For `COc1ccc(C2=NCCn3c2c2ccc(C(F)(F)F)cc2[n+]3[O-])cc1`, the Potency was inconclusive: 7.36 µM [rising, partial curve, poor fit].
For `CCCCC(=O)Nc1ncc([N+](=O)[O-])s1`, the Potency was “inactive”.
For `O=[N+]([O-])c1ccc(/C=C/c2ccnc3ccccc23)c([N+](=O)[O-])c1`, the Potency was “inactive”.
In the case of `NC(=O)c1ccsc1NC(=O)c1ccc([N+](=O)[O-])o1`, the Potency was inconclusive: 26.1 µM [cytotoxic, single point].
In the case of `CC1=C(C(=O)Nc2ccc(CC(=O)NCc3ccc(OC(C)C)cc3)cc2)SCCO1`, the Potency was inconclusive: 6.56 µM [cytotoxic, partial curve].
In the case of `O=C(CCC(=O)Nc1ccc(Cl)cc1Cl)N/N=C/c1ccc([N+](=O)[O-])o1`, the Potency was inconclusive: 4.65 µM [cytotoxic, single point].
In the case of `Nc1ccc(-c2cnc(-c3ccc(N)cc3)nc2)cc1`, the Potency was inconclusive: 2.33 µM [cytotoxic, full curve].
With `CCOC(=O)c1nnn(-c2ccc([N+](=O)[O-])cc2[N+](=O)[O-])c1C` the Potency was inconclusive: 23.3 µM [cytotoxic, single point].
With `COc1ccccc1NC(=O)c1ccc([N+](=O)[O-])o1` the Potency was inconclusive: 23.3 µM [cytotoxic, single point].
With `CC(Oc1cccnc1[N+](=O)[O-])C(=O)Nc1cccc(Cl)c1` (centres undefined) the Potency was “inactive”.
With `CC(Oc1cccnc1[N+](=O)[O-])C(=O)Nc1ccc(F)cc1` (centres undefined) the Potency was “inactive”.
In the case of `CC(=O)c1ccc(NC(=O)c2ccc([N+](=O)[O-])o2)cc1`, the Potency was inconclusive: 26.1 µM [cytotoxic, single point].
With `CCn1ncc([N+](=O)[O-])c1C(=O)Nc1nc2cccc(C)c2s1` the Potency was “inactive”.
With `Cc1nn2c3cc(N4CCOCC4)ccc3nc2c2ccccc12` the Potency was inconclusive: 2.07 µM [cytotoxic, full curve].
In the case of `Nc1nonc1OCCN1CCN(c2ccc([N+](=O)[O-])c3cccnc23)CC1`, the Potency was inconclusive: 0.585 µM [cytotoxic, single point].
For `CC(OC(=O)c1ccc(Cl)nc1)C(=O)NC1CCCC1` (centres undefined), the Potency was inconclusive: 0.414 µM [cytotoxic, single point].
For `Cc1nc2c(N=Nc3ccccc3F)c(N)nn2c(N)c1C#N`, the Potency was “inactive”.
For `Cc1[nH]n(S(=O)(=O)Cc2ccccc2)c(=O)c1N=Nc1ccccc1Cl`, the Potency was “inactive”.
In the case of `CCc1ccc2nc3sc(C(=O)O)cc3cc2c1`, the Potency was inconclusive: 14.7 µM [cytotoxic, partial curve].
In the case of `O=[N+]([O-])c1ccc(/C=N/NC(=S)Nc2ccc(Cl)cc2Cl)s1`, the Potency was inconclusive: 14.7 µM [cytotoxic, single point].
